Some of the results follow.
What was measured:
Assay in all cases: glycan array binding signal (z-score within array); higher = stronger binding
Details in all cases: glycan notation: IUPAC condensed, linker removed
[1] = molecular target: Fuc(a1-2)Gal
Summary of the method: (§1)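 The Consortium for Functional Glycomics database supplied 3228 glycan arrays, of which those lacking an available protein sequence were dropped. The binding signal, a within-array Z-score, was averaged across arrays of the same protein sequence and across linkers. Negative scores can be read as non-binding.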

[2] = molecular target: Fuc(a1-2)Gal(b1-3)GalNAc
Summary of the method: as §1

[3] = molecular target: Fuc(a1-2)Gal(b1-3)GalNAc(a1-3)[Fuc(a1-2)]Gal(b1-4)Glc
Summary of the method: as §1

[4] = molecular target: Fuc(a1-2)Gal(b1-3)GalNAc(a1-3)[Fuc(a1-2)]Gal(b1-4)GlcNAc
Summary of the method: as §1

[5] = molecular target: Fuc(a1-2)Gal(b1-3)GalNAc(b1-3)Gal
Summary of the method: as §1

[6] = molecular target: Fuc(a1-2)Gal(b1-3)GalNAc(b1-3)Gal(a1-4)Gal(b1-4)Glc
Summary of the method: as §1

[7] = molecular target: Fuc(a1-2)Gal(b1-3)GalNAc(b1-4)[Neu5Ac(a2-3)]Gal(b1-4)Glc
Summary of the method: as §1

[8] = molecular target: Fuc(a1-2)Gal(b1-3)GlcNAc
Summary of the method: as §1

[9] = molecular target: Fuc(a1-2)Gal(b1-3)GlcNAc(b1-2)Man(a1-3)[Fuc(a1-2)Gal(b1-3)GlcNAc(b1-2)Man(a1-6)]Man(b1-4)GlcNAc(b1-4)GlcNAc
Summary of the method: as §1

[10] = molecular target: Fuc(a1-2)Gal(b1-3)GlcNAc(b1-2)Man(a1-3)[Fuc(a1-2)Gal(b1-3)GlcNAc(b1-2)Man(a1-6)]Man(b1-4)GlcNAc(b1-4)[Fuc(a1-6)]GlcNAc
Summary of the method: as §1

[11] = molecular target: Fuc(a1-2)Gal(b1-3)GlcNAc(b1-3)Gal(b1-4)Glc
Summary of the method: as §1

[12] = molecular target: Fuc(a1-2)Gal(b1-3)GlcNAc(b1-3)GalNAc
Summary of the method: as §1

[13] = molecular target: Fuc(a1-2)Gal(b1-3)GlcNAc(b1-3)[Fuc(a1-2)Gal(b1-3)GlcNAc(b1-6)]GalNAc
Summary of the method: as §1

[14] = molecular target: Fuc(a1-2)Gal(b1-3)GlcNAc(b1-3)[Fuc(a1-3)[Gal(b1-4)]GlcNAc(b1-6)]Gal(b1-4)Glc
Summary of the method: as §1

[15] = molecular target: Fuc(a1-2)Gal(b1-3)GlcNAc(b1-3)[Gal(b1-4)GlcNAc(b1-6)]Gal(b1-4)Glc
Summary of the method: as §1

[16] = molecular target: Fuc(a1-2)Gal(b1-3)GlcNAc(b1-3)[Neu5Ac(a2-6)Gal(b1-4)GlcNAc(b1-6)]Gal(b1-4)Glc
Summary of the method: as §1

[17] = molecular target: Fuc(a1-2)Gal(b1-3)GlcNAc6S
Summary of the method: as §1

[18] = molecular target: Fuc(a1-2)Gal(b1-3)[Fuc(a1-4)]GlcNAc
Summary of the method: as §1

[19] = molecular target: Fuc(a1-2)Gal(b1-3)[Fuc(a1-4)]GlcNAc(b1-2)Man(a1-3)[Fuc(a1-2)Gal(b1-3)[Fuc(a1-4)]GlcNAc(b1-2)Man(a1-3)]Man(b1-4)GlcNAc(b1-4)GlcNAc
Summary of the method: as §1

[20] = molecular target: Fuc(a1-2)Gal(b1-3)[Fuc(a1-4)]GlcNAc(b1-2)Man(a1-3)[Fuc(a1-2)Gal(b1-3)[Fuc(a1-4)]GlcNAc(b1-2)Man(a1-6)]Man(b1-4)GlcNAc(b1-4)GlcNAc
Summary of the method: as §1

[21] = molecular target: Fuc(a1-2)Gal(b1-3)[Fuc(a1-4)]GlcNAc(b1-2)Man(a1-3)[Fuc(a1-2)Gal(b1-3)[Fuc(a1-4)]GlcNAc(b1-2)Man(a1-6)]Man(b1-4)GlcNAc(b1-4)[Fuc(a1-6)]GlcNAc(b1-4)[Fuc(a1-6)]GlcNAc
Summary of the method: as §1

[22] = molecular target: Fuc(a1-2)Gal(b1-3)[Fuc(a1-4)]GlcNAc(b1-3)[Fuc(a1-3)[Gal(b1-4)]GlcNAc(b1-6)]Gal(b1-4)Glc
Summary of the method: as §1

[23] = molecular target: Fuc(a1-2)Gal(b1-3)[Fuc(a1-4)]GlcNAc(b1-3)[Gal(b1-4)GlcNAc(b1-6)]Gal(b1-4)Glc
Summary of the method: as §1

[24] = molecular target: Fuc(a1-2)Gal(b1-4)Fuc(a1-3)]GlcNAc(b1-2)Man(a1-3)[Fuc(a1-2)Gal(b1-4)[Fuc(a1-3)]GlcNAc(b1-2)Man(a1-6)]Man(b1-4)GlcNAc(b1-4)GlcNAc
Summary of the method: as §1

[25] = molecular target: Fuc(a1-2)Gal(b1-4)Glc
Summary of the method: as §1

[26] = molecular target: Fuc(a1-2)Gal(b1-4)Glc6S
Summary of the method: as §1

[27] = molecular target: Fuc(a1-2)Gal(b1-4)GlcNAc
Summary of the method: as §1

[28] = molecular target: Fuc(a1-2)Gal(b1-4)GlcNAc(b1-2)Man
Summary of the method: as §1

[29] = molecular target: Fuc(a1-2)Gal(b1-4)GlcNAc(b1-2)Man(a1-3)[Fuc(a1-2)Gal(b1-4)GlcNAc(b1-2)Man(a1-6)]Man(b1-4)GlcNAc(b1-4)GlcNAc
Summary of the method: as §1

[30] = molecular target: Fuc(a1-2)Gal(b1-4)GlcNAc(b1-2)Man(a1-3)[Fuc(a1-2)Gal(b1-4)GlcNAc(b1-2)Man(a1-6)]Man(b1-4)GlcNAc(b1-4)[Fuc(a1-6)]GlcNAc
Summary of the method: as §1

[31] = molecular target: Fuc(a1-2)Gal(b1-4)GlcNAc(b1-2)[Fuc(a1-2)Gal(b1-4)GlcNAc(b1-4)]Man(a1-3)[Fuc(a1-2)Gal(b1-4)GlcNAc(b1-2)Man(a1-6)]Man(b1-4)GlcNAc(b1-4)GlcNAc
Summary of the method: as §1

[32] = molecular target: Fuc(a1-2)Gal(b1-4)GlcNAc(b1-3)Gal(b1-4)GlcNAc
Summary of the method: as §1

[33] = molecular target: Fuc(a1-2)Gal(b1-4)GlcNAc(b1-3)Gal(b1-4)GlcNAc(b1-2)Man(a1-3)[Fuc(a1-2)Gal(b1-4)GlcNAc(b1-3)Gal(b1-4)GlcNAc(b1-2)Man(a1-6)]Man(b1-4)GlcNAc(b1-4)GlcNAc
Summary of the method: as §1

[34] = molecular target: Fuc(a1-2)Gal(b1-4)GlcNAc(b1-3)Gal(b1-4)GlcNAc(b1-3)Gal(b1-4)GlcNAc
Summary of the method: as §1

[35] = molecular target: Fuc(a1-2)Gal(b1-4)GlcNAc(b1-3)GalNAc
Summary of the method: as §1

[36] = molecular target: Fuc(a1-2)Gal(b1-4)GlcNAc(b1-3)[Fuc(a1-2)Gal(b1-4)GlcNAc(b1-6)]GalNAc
Summary of the method: as §1

[37] = molecular target: Fuc(a1-2)Gal(b1-4)GlcNAc(b1-3)[Fuc(a1-3)[Gal(b1-4)]GlcNAc(b1-6)]Gal(b1-4)Glc
Summary of the method: as §1

B1: PpFlo2 (Pichia pastoris) (protein)
chain: MGSSHHHHHHSSGLVPRGSHMDDSGNGDNSDTAYGCDITTNAVDGFDATIYQYNANDLRLIRDPTFMSTGYLGRNVLNKISGVTVPGFNIWNPSSRTATVYGVKNVNYYNMVLELKGYFKADVSGDYKLTLSHIDDSSMLFFGKETAFKCCDAGSIPLNEAPTDYSLFTIKPSNQVNSEVISATQYLEAGKYYPVRIVFVNALERARFDFKLTIPSGAVLDDFQNYIYQFGDLDENSCHE
glycan array binding signal (z-score) [1]: -0.289
glycan array binding signal (z-score) [2]: -0.292
glycan array binding signal (z-score) [3]: -0.302
glycan array binding signal (z-score) [4]: -0.295
glycan array binding signal (z-score) [5]: -0.295
glycan array binding signal (z-score) [6]: -0.3
glycan array binding signal (z-score) [7]: -0.297
glycan array binding signal (z-score) [8]: -0.288
glycan array binding signal (z-score) [9]: -0.283
glycan array binding signal (z-score) [10]: -0.285
glycan array binding signal (z-score) [11]: -0.279
glycan array binding signal (z-score) [12]: -0.279
glycan array binding signal (z-score) [13]: -0.234
glycan array binding signal (z-score) [14]: -0.305
glycan array binding signal (z-score) [15]: -0.285
glycan array binding signal (z-score) [16]: -0.27
glycan array binding signal (z-score) [17]: -0.272
glycan array binding signal (z-score) [18]: -0.3
glycan array binding signal (z-score) [19]: -0.27
glycan array binding signal (z-score) [20]: -0.346
glycan array binding signal (z-score) [21]: -0.25
glycan array binding signal (z-score) [22]: -0.288
glycan array binding signal (z-score) [23]: -0.272
glycan array binding signal (z-score) [24]: -0.266
glycan array binding signal (z-score) [25]: -0.232
glycan array binding signal (z-score) [26]: -0.299
glycan array binding signal (z-score) [27]: -0.29
glycan array binding signal (z-score) [28]: -0.274
glycan array binding signal (z-score) [29]: -0.259
glycan array binding signal (z-score) [30]: -0.295
glycan array binding signal (z-score) [31]: -0.29
glycan array binding signal (z-score) [32]: -0.281
glycan array binding signal (z-score) [33]: -0.217
glycan array binding signal (z-score) [34]: -0.254
glycan array binding signal (z-score) [35]: -0.251
glycan array binding signal (z-score) [36]: 0.265
glycan array binding signal (z-score) [37]: -0.268

Reference: the supplement of paper PMC8728848
